Measurements: PubChem BioAssay AID2100 (National Center for Advancing Translational Sciences (NCATS), 2009)
Values joined by “and” are separate entries in the source; they are usually repeats but may differ in a detail not shown here. Identical values can stand only once. Screen size: about 300,000 compounds; about 1,200 (0.4%) were called active. Inconclusive results, whose numbers are uncertain, are shown with a selection of clear calls. Calls come from the whole dose curve; as a rule, active = well fitted inhibition curve with a large enough effect; inconclusive = small, poorly fitted or top-dose-only effect, or another doubt; inactive = no such curve, though single readings can be large or run the other way. Potencies of inconclusive entries are doubtful fits and often do not repeat.

Molecular target: Lysosomal alpha-glucosidase (Homo sapiens) (UniProt P10253)
Test: qHTS Assay for Inhibitors and Activators of Human alpha-Glucosidase Cleavage of Glycogen;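 for activity change, negative = inhibition: 0% = full enzyme reaction and -100% = no-enzyme basal signal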
Settings: recombinant GAA, glycogen substrate, Amplex Red glucose oxidase fluorescence; activity change, negative = inhibition: at 76.4 µM (top of the series) unless noted
Outline: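 Recombinant human enzyme (4 nM); glycogen substrate; 37 C, 40 min, pH 5.0. Readout: coupled glucose oxidase/Amplex Red fluorescence.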
Potency is the fitted concentration of half-maximal effect.

| SMILES | activity change, negative = inhibition | Potency |
| --- | --- | --- |
| CC(=O)C1=C(C)Nc2ncnn2C1c1ccc(Cl)cc1Cl (stereo not drawn) | inconclusive: 65.9% [activator] | – |
| CC(C)NC(=O)Nc1n[nH]c(Nc2ccc(Cl)cc2)n1 | – | inconclusive: 31.6 µM [inhibitor, partial curve] |
| FC(F)(F)c1ccc(Cl)c(-n2c(Cc3cccs3)n[nH]c2=S)c1 | – | inconclusive: 22.4 µM [inhibitor, partial curve] |
| COc1cc2[nH]c(=O)n(CCCCCC(=O)N3CCN(c4ccc(Cl)cc4)CC3)c(=O)c2cc1OC | inactive: 16.9% [at 76.3 µM] | – |
| Cc1ccc(NC(=O)Cn2c(=O)n(CCC(=O)NCc3ccccc3Cl)c(=O)c3ccccc32)c(C)c1 | inactive: -1.86% [at 76.3 µM] | – |
| COc1ccc(C2C(C(=O)Nc3ccccc3)=C(C)Nc3nc(-c4ccccc4Cl)nn32)cc1OC (stereo not drawn) | – | inconclusive: 35.5 µM [inhibitor, partial curve] |
| CCCCN(Cc1ccco1)C(=O)Cn1ncc2c([nH]c3ccccc32)c1=O | inactive: -6.4% [at 76.3 µM] | – |
| O=C1NN(c2ccc(Br)cc2)C(=O)/C1=C\c1ccc(O)cc1O | – | active: 8.91 µM |
| COc1ccc(Oc2nc3c(C)cccn3c(=O)c2/C=C(\C#N)c2nc3ccccc3[nH]2)cc1 | – | inconclusive: 5.62 µM [inhibitor, full curve] |
| CN(C)N1C(N)=C(C#N)C(c2ccc(Br)cc2)C2=C1CCCC2=O (stereo not drawn) | – | inconclusive: 39.8 µM [inhibitor, partial curve] |
| Cc1ccn2c(Nc3ccc4c(c3)OCO4)c(-c3ccccn3)nc2c1 | – | inconclusive: 6.31 µM [inhibitor, full curve, poor fit] |
| Oc1ccc2ccccc2c1/C=N/c1nc2c(s1)CCCC2 | inactive: -4.06% | – |
| CC(=O)c1ccc(Nc2c(C)n(C)n(-c3ccccc3)c2=O)cc1 | – | inconclusive: 1.58 µM [inhibitor, full curve, poor fit] |
| O=C(N/N=C/C1CC=CCC1)c1cc(Br)ccc1O (stereo not drawn) | – | inconclusive: 11.2 µM [inhibitor, single point] |
| O=[N+]([O-])c1ccc(N/N=C/c2ccc(O)c(O)c2O)c(S(=O)(=O)N2CCOCC2)c1 | – | inconclusive: 20 µM [inhibitor, partial curve] |
| Cc1ccsc1/C=N/Nc1ccc(C(=O)O)cc1 | – | inconclusive: 15.8 µM [inhibitor, partial curve] |
| COC(=O)c1c(C)sc(-c2c(-c3ccc(F)cc3)[nH]c3[nH]c(=O)[nH]c(=O)c23)c1O | – | inconclusive: 22.4 µM [inhibitor, partial curve] |
| CCc1ccc(/C(C)=N/Nc2cc(Cl)nc(C)n2)cc1 | – | inconclusive: 39.8 µM [inhibitor, single point] |
| CNC(=S)NNC(=O)c1oc2nc(-c3ccccc3)cc(C)c2c1N | – | inconclusive: 28.2 µM [inhibitor, partial curve] |
| NNC(=O)c1nn(-c2ccc(Cl)cc2)cc1O | – | active: 28.2 µM |
| COc1ccccc1N1C(=O)c2ccccc2NC1c1ccncc1 (stereo not drawn) | inactive: -0.787% | – |
| CN(C)S(=O)(=O)c1cc(NC(=O)CN2CCCc3ccccc32)ccc1Cl | – | inconclusive: 35.5 µM [activator, single point] |
| C=CCn1c(-c2cc(-c3ccccc3)sc2N)n[nH]c1=S | – | active: 22.4 µM |

| SMILES | activity change, negative = inhibition | Potency |
| --- | --- | --- |
| COc1ccc(N(C(=O)c2ccc(C)cc2)S(=O)(=O)c2ccc(Cl)cc2)cc1 | inactive: 6.53% [at 76.3 µM] | – |
| CCc1ccc(C(=O)NNc2ccc(S(N)(=O)=O)cc2)cc1 | – | inconclusive: 15.8 µM [inhibitor, partial curve] |
| Cc1ccccc1Nc1c(-c2ccccc2O)nc2sccn12 | – | active: 11.2 µM |
| CCN(CC)c1ccc(NC(=O)CN2C(=O)CC(C)(C)S(=O)(=O)c3ccccc32)c(C)c1 | inactive: -6.04% | – |
| O=c1cc2oc3cc(O)c(O)cc3c(-c3ccccc3[N+](=O)[O-])c-2cc1O | – | inconclusive: 11.2 µM [inhibitor, partial curve] |
| COc1ccc(Nc2ccccc2N)cc1 | – | inconclusive: 50.1 µM [inhibitor, single point] |
| COc1ccc(NC(=O)C(c2ccc(OC)cc2)N(Cc2ccco2)C(=O)CC2NC(=O)NC2=O)cc1 (stereo not drawn) | – | inconclusive: 3.95 µM [inhibitor, single point] |
| COc1ccc(/C=N/c2oc(-c3ccccc3)cc2C#N)cc1OC | – | active: 25.1 µM |
| COCCNC(=S)NNc1ccccc1[N+](=O)[O-] | – | inconclusive: 31.6 µM [inhibitor, partial curve] |
| FC(F)Oc1ccc(NC(=S)Nc2ccc3cn[nH]c3c2)cc1 | – | inconclusive: 50.1 µM [inhibitor, single point] |
| CSc1cccc(NC(=S)NN(C)C)c1 | – | inconclusive: 20 µM [inhibitor, partial curve] |
| Cc1cc(C(C)(C)C)nc2[nH]n(-c3ccccc3)c(=O)c12 | – | inconclusive: 20 µM [inhibitor, partial curve] |
| CC1CC(C)CN(c2ncc3c(n2)CC(c2ccc(Cl)cc2)CC3=O)C1 (stereo not drawn) | – | inconclusive: 39.8 µM [inhibitor, single point] |
| COc1ccc(NC(=O)CC2Nc3cccc4cccc(c34)NC2=O)cc1 (stereo not drawn) | – | inconclusive: 10 µM [inhibitor, partial curve] and inconclusive: 3.16 µM [inhibitor, partial curve] |
| O=C(CCCn1c(=O)c2cccn2c2ccccc21)Nc1cccc(Cl)c1 | inactive: -5.47% [at 76.3 µM] | – |
| COc1ccc(NC(=O)C2CCCN(S(=O)(=O)c3ccc(C)cc3)C2)cc1OC (stereo not drawn) | – | inconclusive: 11.2 µM [activator, single point] |
| CC(=O)N1CCC(=NNc2ccc(S(N)(=O)=O)cc2[N+](=O)[O-])CC1 | – | inconclusive: 15.8 µM [inhibitor, partial curve] |
| COc1ccccc1N1CCN(C(=O)c2ccc(NS(=O)(=O)c3ccc(C)cc3)cc2)CC1 | inactive: 6.38% | – |
| COc1ccccc1-n1cnc2cc(NCc3ccccn3)ccc21 | – | inconclusive: 31.6 µM [inhibitor, partial curve] |
| COc1ccc(C(=O)COc2ccccc2N2C(=O)C3C4C=CC(C4)C3C2=O)cc1 (stereo not drawn) | – | inconclusive: 3.95 µM [inhibitor, single point] |
| O=C(NCc1ccccc1Cl)c1ccc2c(O)c(S(=O)(=O)c3ccccc3)c(=O)[nH]c2c1 | inactive: 7.83% [at 76.3 µM] | – |
| Cc1cc(/C=N/NC(=O)C(=O)NCc2ccccn2)c(C)n1-c1ccccc1 | – | inconclusive: 22.4 µM [inhibitor, single point] |
| CCc1ccc(NC(=O)Cn2c(=O)n(CCC(=O)NCc3ccc4c(c3)OCO4)c(=O)c3ccccc32)cc1 | inactive: 12.6% [at 76.3 µM] | – |

| SMILES | activity change, negative = inhibition | Potency |
| --- | --- | --- |
| O=[N+]([O-])c1ccc(N2CCN(S(=O)(=O)c3ccccc3)CC2)cc1 | inactive: 0.397% [at 76.3 µM] | – |
| CCCC(=O)NC(c1ccc(OC)cc1)c1ccc2cccnc2c1O (stereo not drawn) | – | inconclusive: 39.5 µM [inhibitor, single point] |
| O=C(O)C[C@@H]1C(=O)O[C@@H]2C(COC(=O)c3cc(O)c(O)c(O)c3)O[C@@H](OC(=O)c3cc(O)c(O)c(O)c3)[C@@H](OC(=O)c3cc(O)c(O)c4c3[C@H]1[C@H](O)C(=O)O4)[C@H]2OC(=O)c1cc(O)c(O)c(O)c1 (stereo partly drawn) | – | active: 1.57 µM |
| COc1ccc(-c2[nH]nc3oc(=O)c(CCO)c(C)c23)cc1 | – | inconclusive: 25.1 µM [inhibitor, partial curve] |
| COc1ccc(S(=O)(=O)NCc2c(-c3ccccc3)noc2C)c(OC)c1 | inactive: 1.5% | – |
| O=C(CN1CCN(c2ccccc2O)CC1)NC(=O)NC1CCCC1 | – | active: 3.98 µM |
| O=C(NNS(=O)(=O)Cc1ccccc1)c1ccc([N+](=O)[O-])cc1 | – | inconclusive: 31.6 µM [inhibitor, single point] |
| O=C(NNc1ccccc1F)c1ccccc1 | – | inconclusive: 50.1 µM [inhibitor, single point] |
| COc1ccc(/C=N/Nc2ncnc(Cl)c2N)cc1OC | – | inconclusive: 14.1 µM [inhibitor, partial curve] |
| CCCN1CCCc2ccccc21 | inactive: 9.86% | – |
| CCOc1ccc(NCC2CCOC(C)(C)C2)cc1 (stereo not drawn) | – | inconclusive: 11.2 µM [inhibitor, partial curve] |
| O=C(Oc1c(-c2ccco2)oc2ccccc2c1=O)c1cccnc1 | – | inconclusive: 39.8 µM [inhibitor, partial curve] |
| Cc1ccc(NC(=S)Nc2cccc3cnccc23)cc1C | inactive: -16.9% | – |
| Cc1[nH]n(-c2ccccc2)c(=S)c1C=Nc1cccc([N+](=O)[O-])c1 | – | inconclusive: 24.9 µM [inhibitor, partial curve] |
| COc1ccc(O)c(CN2CCN(CCc3ccccc3)C(CCO)C2)c1 (stereo not drawn) | – | inconclusive: 8.91 µM [inhibitor, partial curve] |
| O=C(NCc1ccco1)c1cc(NS(=O)(=O)c2cccc([N+](=O)[O-])c2)ccc1O | – | inconclusive: 7.88 µM [inhibitor, partial curve] |
| Cc1[nH]c2ccccc2c1/C=N/Nc1ccc(F)cc1F | – | inconclusive: 31.6 µM [inhibitor, partial curve] |
| O=C(Nc1nnc(S(=O)(=O)N2CCOCC2)s1)c1ccccc1Cl | – | inconclusive: 22.4 µM [inhibitor, partial curve] |
| Cc1[nH][nH]c(=O)c1C(c1ccc(-c2ccc(Cl)c(Cl)c2)o1)c1c(C)[nH][nH]c1=O | – | active: 31.6 µM |
| O=C(CCN1CCOCC1)NNC(=S)NC(=O)c1ccc(Br)cc1 | – | inconclusive: 4.47 µM [inhibitor, full curve, poor fit] |
| Cc1[nH]c2ccccc2c1/C=N/Nc1ccccn1 | – | inconclusive: 15.8 µM [inhibitor, partial curve] |
| Cc1cc(Cl)ccc1NNC(=O)c1snnc1C | – | inconclusive: 14.1 µM [inhibitor, partial curve] |
